Hit rate of the full screen: of about 150,000 compounds, about 540 (0.36%) showed an effect of 50% or more. This is one part of the list.
test system: Plasmodium falciparum; experiment: Primary screen in NF54 nanoGlo assay, in single point, at 2uM, 72h; a lower Z score goes with more inhibition; assay type: functional, Erythrocyte; conditions: timepoint 72 hour

SMILES	% Inhibition	Z score
COCCn1cnnc1CN(C)Cc1ccc(C)c2ncccc12	-2%	0.3
N=C(NS(=O)(=O)c1ccc2ccccc2c1)N1CCN(c2ccccc2)CC1	31%	-3.47
CCc1nc(CC(=O)Nc2nnc(-c3ccc(C)s3)[nH]2)cs1	-2%	0.2
CCN(C)C(=O)c1ccc(N2CCC3(CCC(=O)N(C4CC4)C3)CC2)nc1	-12%	1.53
Cc1cc(C)c(C#N)c(N2CC(c3ccncc3)C2)n1	-6%	1.17
Cc1cc(N2CCC(NC(=O)[C@@H]3COc4ccccc4O3)CC2)n[nH]1	10%	-1.34
COc1ccnc(N(C)C[C@H]2CC(=O)N(C)C2)n1	-4%	0.53
COc1ccc(C(=O)N2CCCC[C@H]2C(=O)N2CCOCC2)cc1	-5%	0.94
CC1CCN(c2nc3c(c(Oc4cccc(F)c4)n2)CN(Cc2cccn2C)CC3)CC1	-11%	1.04
CN1CCN(CC2CCCN(C(=O)C3CC3C3CCCCC3)C2)CC1 (stereo unspecified)	-17%	1.56
CCN(CC)c1cc(CCC(=O)NCc2ccc(Cl)cc2)ccn1	-13%	1.89
COc1ccc(C(=O)c2c(-c3ccc(Cl)cc3)c3c4n(c(COc5ccccc5F)nn24)CCCC3)cc1	-4%	0.79
N[C@@H](Cc1c[nH]c2ccccc12)C(=O)NC1CCCC1	7%	-1.14
O=C(O)[C@H]1CCCN1c1nc(C2CC2)nc2[nH]ccc12	-2%	0.25
CCc1cc(C(=O)N2CCC3(CCC(=O)N(CCOC)C3)CC2)ccn1	0%	0.08
Cc1ccc(S(=O)(=O)N2C[C@H](c3cn(C)cn3)[C@@H](N)C2)cc1C	0%	0.03
O=C(Nc1ccc(F)cc1F)[C@H]1CCCN(S(=O)(=O)Cc2ccccc2Cl)C1	4%	-0.48
COc1ccc(CN2CCN(C3=NS(=O)(=O)C(c4ccc(C(C)C)cc4)=C3C)CC2)c(OC)c1OC	-11%	1.61
N#Cc1cccc(C2(c3nc(Cc4cccc(F)c4)no3)CCC2)c1	3%	-0.33
COc1cccn([C@@H](C)C(=O)NC(C)C)c1=O	-21%	1.94
CCS(=O)(=O)CC(C)NC(C)c1cccc(F)c1 (stereo unspecified)	9%	-1.2
CC(C)[C@H](CNc1nccnc1C#N)N1CCCC1	1%	-0.21
O=C(c1cnccn1)N1CC[C@H]2COC(=O)N2c2ccccc2C1	15%	-1.69
CCc1cccc(C)c1/N=C1/N=C(N2CCOCC2)N(c2ccc(C)cc2)C12CCCCC2	-34%	3.98
CC(NC(C)c1ccncc1F)c1ccc2c(c1)COC(C)(C)O2 (stereo unspecified)	2%	-0.21
CO[C@H]1CN(C(=O)Cc2cc(C)cc(C)c2)C[C@@H]1O	-15%	2.78
C=CCNC(=O)C1C(=O)N[C@@]2(C)C[C@H]1c1ccccc1O2 (stereo partly specified)	-2%	0.22

SMILES	% Inhibition	Z score
COc1ccccc1N1CCN(C(=O)c2cn3c4c(cccc4c2=O)CC3)CC1	-3%	0.32
N#Cc1c(C2CC2)cc(-c2cc(CN3CCCC3)cs2)nc1N	-13%	2.07
CC(=O)c1ccc(N2CCC3(CCOCC3)[C@@H]2C)nc1	-3%	0.29
COCC(=O)N1CC[C@@H](c2nc(C)no2)N(C(=O)C2CCCC2)CC1	2%	-0.34
CN(Cc1ncc[nH]1)c1nc(-c2ccncc2)nc2c1CCNC2	-10%	1.38
CCC1CCCC(CN(C)C2CC[S+]([O-])CC2)C1 (stereo unspecified)	3%	-0.3
CC[C@H](OC)C(=O)N1CC2CC1(C(N)=O)C2	-6%	1.16
N#Cc1ccc(NCC2(CCO)CC2)c(Br)c1	-3%	0.34
O=C(CCN1CCCO1)NC(c1ccc(F)cc1F)[C@H]1C[C@@H](O)C1 (stereo partly specified)	-5%	0.75
O=C(CC(F)(F)F)NCc1cccs1	8%	-1.16
CCc1cccc2c(C3CCN(C(=O)CNS(=O)(=O)C4CC4)CC3)c[nH]c12	-1%	0.15
CC(C)Cc1nc(-c2cc(F)cc3c2O[C@@H](CN)C3)n[nH]1	-4%	0.78
CC(C)CCN(Cc1ccc(F)cc1F)C[C@H](O)COCc1ccco1	-9%	1.14
C[C@@H]1CN(C[C@@H]2CN(Cc3ccccc3C(F)(F)F)C[C@@H]2CO)C[C@H](C)O1	-5%	0.65
C[C@@H]1CN(C[C@@H]2CN(c3ncccc3Cl)C[C@@H]2CO)C[C@H](C)O1	-12%	1.63
C[C@H](N(C)C(=O)NCC1CCS(=O)(=O)CC1)C1(C)CC1	7%	-0.91
CCn1nccc1C(=O)N1CCCCC[C@H]1c1nnc(-c2ccccc2)o1	-14%	2.65
N#Cc1cnc(NCc2ccc(NC(=O)c3ccc(F)cc3)cc2)cn1	-17%	2.89
Cc1nc2n(c1Br)CCN(CCC1(O)CCC1)[C@H]2C	1%	-0.09
O=C1CC2(CCN(C(=O)c3cc(C4CC4)no3)CC2)CN1Cc1ccccc1	-2%	0.19
COc1cccnc1NC(=O)N1CC2(CC=CC2)[C@H]1c1ccccc1	5%	-0.71
O[C@@]1(CN2CCCCC2)CCN(Cc2cccc(OC(F)F)c2)C1	-6%	1.06
CO[C@@]12CC[C@H](O)C[C@@H]1N(C(=O)c1[nH]c3ccccc3c1C)CC2	-22%	1.97
Cc1cc(NC(=O)CN2CCO[C@H](c3ccsc3)C2)no1	-4%	0.53
COC(=O)c1ccc([C@@H](CC(=O)NCc2ccccc2)c2c[nH]c3cccc(OC)c23)cc1	2%	-0.22
O=C(NC1CCCCCCC1)c1cc2n(n1)CCCN(Cc1ccc(F)cc1)C2=O	-4%	0.51

From ChEMBL document CHEMBL4888484, “Replenishing the malaria drug discovery pipeline: Screening and hit evaluation of the MMV Hit Generation Library 1 (HGL1) against asexual blood stage Plasmodium falciparum ,using a nano luciferase reporter read-out” (2022)
